# The campaign covered roughly 310,000 compounds. About 14,000 (4.5%) showed an effect of 50% or more. The effect is printed as a negative number. Some of the results follow.
# Molecular target: human ether-à-go-go-related gene (hERG) potassium channel (human, UniProt Q12809)
# Assay: primary screen, population patch clamp on CHO cells stably expressing hERG
# 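Also: peak tail current of the secondary pulse compared with the same well before compound.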
# Chain of human ether-à-go-go-related gene (hERG) potassium channel (Q12809 whole entry, looked up): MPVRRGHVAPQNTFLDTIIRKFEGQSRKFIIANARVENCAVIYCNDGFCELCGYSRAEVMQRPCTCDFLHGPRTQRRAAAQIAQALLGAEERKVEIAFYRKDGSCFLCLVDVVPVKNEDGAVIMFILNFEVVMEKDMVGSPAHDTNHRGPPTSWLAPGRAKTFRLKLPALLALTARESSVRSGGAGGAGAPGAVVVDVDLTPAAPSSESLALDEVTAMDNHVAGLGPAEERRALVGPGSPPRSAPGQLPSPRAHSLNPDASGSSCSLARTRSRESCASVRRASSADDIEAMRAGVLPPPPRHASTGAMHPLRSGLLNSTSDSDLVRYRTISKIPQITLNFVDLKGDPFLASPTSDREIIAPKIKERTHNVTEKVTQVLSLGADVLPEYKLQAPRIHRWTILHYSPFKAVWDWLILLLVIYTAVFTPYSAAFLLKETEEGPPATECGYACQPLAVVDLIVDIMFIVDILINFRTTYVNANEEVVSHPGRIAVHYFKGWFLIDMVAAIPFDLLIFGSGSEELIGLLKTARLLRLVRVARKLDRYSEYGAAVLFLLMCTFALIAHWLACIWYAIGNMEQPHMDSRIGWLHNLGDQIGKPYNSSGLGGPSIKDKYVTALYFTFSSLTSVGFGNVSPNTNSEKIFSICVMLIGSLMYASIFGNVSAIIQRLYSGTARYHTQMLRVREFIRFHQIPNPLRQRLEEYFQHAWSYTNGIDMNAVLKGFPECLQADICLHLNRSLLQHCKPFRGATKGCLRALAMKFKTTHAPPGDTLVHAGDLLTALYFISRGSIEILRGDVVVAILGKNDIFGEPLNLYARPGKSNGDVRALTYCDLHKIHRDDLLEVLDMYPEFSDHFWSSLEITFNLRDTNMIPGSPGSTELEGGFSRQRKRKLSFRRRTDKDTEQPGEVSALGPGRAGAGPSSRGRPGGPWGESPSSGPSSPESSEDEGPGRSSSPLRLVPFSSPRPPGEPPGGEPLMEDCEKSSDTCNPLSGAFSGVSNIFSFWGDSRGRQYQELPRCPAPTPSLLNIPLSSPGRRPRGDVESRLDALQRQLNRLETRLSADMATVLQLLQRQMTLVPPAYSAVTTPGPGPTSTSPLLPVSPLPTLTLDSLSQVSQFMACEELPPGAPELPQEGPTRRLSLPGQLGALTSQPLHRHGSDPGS
row,Structure (SMILES),"hERG current change (%, negative = inhibition) at 10uM"
1,COc1cccc(OC)c1C(=O)OCC(=O)/C(C#N)=C(\C)N,4.87%
2,CCN(CC)CCN(C(=O)c1ccccc1OC)c1nc2ccc(F)cc2s1.Cl,-68.3%
3,O=C(c1ccc(C(F)(F)F)cc1)C1CCCN(C(=O)Cn2cncn2)C1 (stereo not shown),-14.8%
4,CCN(CC(=O)N1CCN(Cc2ccccc2)CC1)S(=O)(=O)c1ccc(F)cc1,-46%
5,COc1ccc(S(=O)(=O)NCC(=O)NCc2cc(=O)n(C)c(=O)n2C)cc1,11.5%
6,Cc1c(OC(C)C(=O)NCc2ccncc2)ccc2c3c(c(=O)oc12)CCCC3 (stereo not shown),-27.7%
7,O=C(Cc1ccccc1[N+](=O)[O-])NNC(=O)c1ccncc1,-14.4%
8,Cc1cc(C)c(S(=O)(=O)c2ccccc2)c(OC(=O)c2c(F)cccc2Cl)n1,0.037%
9,NCCNc1ccc([N+](=O)[O-])c2cccnc12,1.29%
10,COc1ccc(C2CC(=O)c3c(C)nc(N4CCN(c5ccccc5)CC4)nc3C2)cc1 (stereo not shown),3.44%
11,O=C(O)CCC(=O)NCc1ccc2[nH]c3c(c2c1)CCCC3,-2.3%
12,COCCN(C(=O)CCc1ccccc1OC)c1nnc(-c2cccnc2)s1,-37.1%
13,O=C(NCc1ccccc1Cl)C1CCCN1C(=O)Nc1ccccc1 (stereo not shown),12.7%
14,CN1CCN(/N=C/c2nc(-c3ccc(Cl)cc3)n3ccccc23)CC1,-62.1%
15,COc1cccc(C(=O)N2CCC(O)(c3cccnc3)CC2)c1,-2.54%
16,CC(=O)Nc1ccc(S(=O)(=O)NCc2nnnn2-c2ccc(Cl)cc2)cc1,2.31%
17,CC1(C)CNC(=O)c2sc(NC(=O)c3ccccc3Cl)nc2C1,8.99%
18,O=C(CN(Cc1ccccc1)C(=O)c1csnn1)NCc1ccc2c(c1)OCO2,-23.4%
19,CC(C)c1nnc(SCc2ccc(CSc3nnc(C(C)C)n3N)cc2)n1N,0.377%
20,CC(=O)Nc1ccc2c(c1)nc(CCN1CCOCC1)n2C,10.4%
21,Cc1cccc(N2CCN(C(=O)c3ccccc3SCC(=O)N3CCCC3)CC2)c1C,-34.7%
22,CCC1(C(=O)c2ccccc2)C2c3ccccc3OC(=O)C21C(C)=O (stereo not shown),-4.94%

row,Structure (SMILES),"hERG current change (%, negative = inhibition) at 10uM"
1,CCOc1cc(C(=O)Nc2ccc(S(=O)(=O)Nc3cc(C)on3)cc2)cc(OCC)c1OCC,-0.904%
2,COC(=O)c1ccccc1Oc1cnc2ccccc2n1,18.9%
3,CC1=C(C(=O)Nc2cccnc2)C(c2ccncc2)n2nnnc2N1 (stereo not shown),0.138%
4,C=C1CCN(C(Cc2ccccc2)C(=O)OC)S(=O)(=O)c2ccc(F)cc21 (stereo not shown),-3.89%
5,COC(=O)[C@@H](N)Cc1ccc(O)c(O)c1.Cl,5.31%
6,CCCCn1nnnc1SCC(=O)c1ccc(C)c(C)c1,-13.3%
7,Cc1ccc(S(=O)(=O)N2[C@@H](c3ccccc3F)C(C(=O)O)=CC[C@H]2c2ccc(C(C)C)cc2)cc1,15%
8,CCCCOc1ccc(CN2CCN(CC)CC2)cc1,-14.2%
9,CC1CC(C)CN(C(=O)CN2C(=O)NC(c3ccccc3)(c3ccccc3)C2=O)C1 (stereo not shown),-2.74%
10,COc1ccc(CN2CN(C3CCCC3)CSC2=S)cc1,2.66%
11,CC(C)Cc1ccc(C(C)NC(=O)Cc2ccc(S(=O)(=O)N3CCOCC3)s2)cc1 (stereo not shown),11.1%
12,Clc1ccc(NCc2nnc3n2CCCCC3)cc1,-20%
13,CCCCn1c(=O)c(C(=O)Nc2ccsc2C(=O)OC)c(O)c2ccccc21,-2.52%
14,CCC(=O)OCC(=O)c1cc(C)n(-c2ccc(Br)cc2)c1C,-0.544%
15,CCSc1nc(=O)n(-c2ccccc2)c(C)c1C(C)=O,-2.79%
16,CCn1c(SCC(=O)OC)nnc1-c1ccc(C)cc1,12.6%
17,O=C(O)c1ccc2ncc(NC(=O)c3ccc(F)cc3)c(=O)n2c1,8.11%
18,COc1cccc(/C=N/NC(=O)C(=O)N2CCCCCC2)c1O,14.8%
19,Cc1cc(C)c2c(N)c(C(=O)C(C)(C)C)sc2n1,15%
20,Cn1c(=O)[nH]c(=O)c2c1nc(N1CCN(CCO)CC1)n2Cc1ccccc1Cl,-6.38%
21,O=C(CSc1nc2ccsc2c(=O)n1CC1CCC(C(=O)O)CC1)c1ccc(Cl)cc1 (stereo not shown),33.9%
22,CCOc1ccc(NC(=O)c2ccc(NC(=O)COC(=O)Cc3ccccc3)cc2)cc1,20.5%

row,Structure (SMILES),"hERG current change (%, negative = inhibition) at 10uM"
1,Cc1ccc(S(=O)(=O)N(C)C)cc1NC(=O)CN1C(=O)NC2(CCCCCCC2)C1=O,10.4%
2,COc1ccc(CC(=O)Nc2ccc(S(=O)(=O)Nc3nc(C)cc(C)n3)cc2)cc1,-10.9%
3,CCOC(=O)c1c(NC(=O)CN2CCN(C(=O)c3ccco3)CC2)sc2c1CCCC2,-8.72%
4,COc1ccccc1C(O)c1nccn1C (stereo not shown),18.8%
5,COC(=O)c1sc(NC(=O)COc2cccnc2[N+](=O)[O-])c(C(=O)OC)c1C,3.81%
6,Cn1c(=O)n(Cc2ccccc2Cl)c2ccccc21,0.502%
7,Cc1ccc(S(=O)(=O)N2CCN(S(=O)(=O)c3cccs3)CC2)cc1,-9.86%
8,O=C(NCCc1ccccc1)C1c2ccccc2C(=O)N1C1CC1 (stereo not shown),-9.2%
9,CCCOc1ccccc1-c1nc(SCCC(=O)O)n[nH]1,-1.54%
10,CO/N=C(\c1ccccc1)c1cccnc1,9.61%
11,C=CCCC(=O)N1CCC(n2nccc2NC(=O)CCCc2ccccc2)CC1,-28.1%
12,CCOc1ccc(OCCCC(=O)NNC(=O)c2ccncc2)cc1,-37.2%
13,COc1cccc(-n2c(SCc3c(C)noc3C)nnc2-c2cccc(S(=O)(=O)N(C)C)c2)c1,-13.3%
14,Cc1ccccc1NC(=O)c1ccc(CSc2ncccn2)cc1,-6.41%
15,CCC(C)NC(=O)CO/N=C/c1ccc(C(=O)OC)cc1 (stereo not shown),3.67%
16,O=C(CNc1cccc2ccccc12)c1ccc([N+](=O)[O-])cc1,-5.78%
17,CC(CC(=O)Nc1ccc(Cl)c([N+](=O)[O-])c1)c1ccccc1 (stereo not shown),-7.4%
18,COCCCNc1nc(N)c([N+](=O)[O-])c(Nc2cc(OC)ccc2OC)n1,18%
19,Cc1ccc2c(c1)C(CCN)C(=O)N2Cc1ccccc1.Cl (stereo not shown),-25%
20,OCC1(Cc2ccc(F)cc2)CCCN(CCc2ccccc2)C1 (stereo not shown),-45.5%
21,CCOC(=O)N1CCC(NC(=O)C2CCCN(S(C)(=O)=O)C2)CC1 (stereo not shown),7.01%
22,COc1cc(-c2c(C#N)c(N)nc3c2CCCC3)ccc1O,10.4%

row,Structure (SMILES),"hERG current change (%, negative = inhibition) at 10uM"
1,Cc1ccc(C)c(NC(=O)CCC(=O)NNC(=O)c2cccc([N+](=O)[O-])c2)c1,-13.5%
2,CC(=O)Oc1ccc(-c2cc3c(OC(C)=O)cc(OC(C)=O)cc3oc2=O)cc1,14.1%
3,O=C1c2cccnc2-c2ncccc21,6.22%
4,NC(=O)Nc1n[nH]c(-c2ccccc2)n1,19.4%
5,Cn1c(=O)c2ccccc2n(CC(=O)Nc2ccc3c(c2)OCCO3)c1=O,11.1%
6,CCN(CC)S(=O)(=O)c1cc(NC(=O)[C@@H](NC(N)=O)C(C)C)ccc1C,15.5%
7,COC(=O)CCCC1=CC2=C(c3ccccc3)C(=O)C(C)(OC(=O)C3CCCC3)C(=O)C2=CN1Cc1ccco1 (stereo not shown),-56.8%
8,COc1cccc(/C=C2\SC(=O)N(CCC(=O)NNC(=O)c3cccc(Cl)c3)C2=O)c1,3.25%
9,Cc1ccc(N2OC3C(=O)NC(=O)C3C2c2ccco2)cc1 (stereo not shown),7.89%
10,COc1ccc2sc(-c3ccccc3OC)c(-c3ccc(OC)nc3)c2c1,6.64%
11,O=C(Cc1sc(-c2ccccc2Cl)nc1-c1ccccc1)Nc1ccccc1,11.3%
12,Cc1ccc(-c2cc3nc(-c4ccccc4)cc(N4CCC5(CC4)OCCO5)n3n2)cc1,6.72%
13,O=C(O)CSCC(=O)NCc1ccccc1Cl,22.6%
14,COc1ccccc1/C=C/CN1CCN(Cc2ccc(F)cc2)C(CCO)C1 (stereo not shown),-51%
15,O=C(c1cccc(S(=O)(=O)NCc2ccccc2)c1)N1CCN(c2cccc(C(F)(F)F)c2)CC1,-4.17%
16,Cc1ccc(C(=O)c2ccccc2C(=O)OCC(=O)NC(=O)NC(C)(C)C)cc1,18.8%
17,O=C(Nc1nc2ccc(F)cc2s1)C1=NN(c2ccccc2)C(=O)CC1,-5.92%
18,CC(C)N1CCN(Cc2ccc3c(c2)OCCO3)CC1CCO (stereo not shown),3.63%
19,Clc1ccc(Oc2cnns2)c(Cl)c1,-9.72%
20,CC(=NCCN1CCOCC1)c1c(O)n(-c2ccccc2C)c(=O)[nH]c1=O,-1.88%
21,CCn1cnc2cc(NCc3ccncc3)ccc21,6.89%
22,COc1ccc2c(c1)cc(C(=O)N/N=C/c1c(O)c(C(=O)O)cc3ccccc13)n2C,19.8%

# From paper PMC4336329 (PLoS ONE, 2015)
